Assay results: the supplement of paper PMC4604168 (melanoma cell lines)
This is one part of the list. Single values are uncertain, as repeats are few or missing.

Tested on: WM1716
Test: cell count relative to DMSO control; melanoma cells; higher = more viable cells
Details: library dose: standard library concentration; 72 h
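Note: cells treated in 1,536-well plates, then fixed and DAPI-stained, with nuclei counted from automated high-throughput microscope images.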

**Q.** For `CC1(C)CCC(c2ccc(Cl)cc2)=C(CN2CCN(c3ccc(C(=O)NS(=O)(=O)c4ccc(N[C@H](CCN5CCOCC5)CSc5ccccc5)c(S(=O)(=O)C(F)(F)F)c4)cc3)CC2)C1` + Cc1cc([N+](=O)[O-])ccc1NS(=O)(=O)c1cc(Cl)ccc1Cl [FH535] (first compound 2 µM, partner dose 5 µM), which cell count is on record?
**A.** The cell count was 27.8%.

**Q.** Which cell count does the source give for `O=C(/C=C/c1cccnc1)NCCCCC1CCN(C(=O)c2ccccc2)CC1` + CCc1ccc(CCOc2ccc(CC3SC(=O)NC3=O)cc2)nc1 [pioglitazone] (first compound 0.05 µM, partner dose 10 µM) here?
**A.** The cell count was 73.2%.

**Q.** Which cell count does the source give for `Cc1ccc(Nc2nccc(N(C)c3ccc4c(C)n(C)nc4c3)n2)cc1S(N)(=O)=O` [Pazopanib] + COc1cc(N2CCC(N3CCN(C)CC3)CC2)ccc1Nc1ncc(Cl)c(Nc2ccccc2S(=O)(=O)C(C)C)n1 [NVP-TAE684] (first compound 2 µM, partner dose 0.4 µM) here?
**A.** Its cell count is 71.7%.

**Q.** For `O=C(/C=C/c1cccnc1)NCCCCC1CCN(C(=O)c2ccccc2)CC1` + COc1ccc(-c2ccc3c(N4CCOCC4)nc(N4C[C@@H](C)O[C@@H](C)C4)nc3n2)cc1CO [KU0063794] (first compound 0.05 µM, partner dose 0.1 µM), which cell count is on record?
**A.** Its cell count is 72.1%.

**Q.** How did the cell count turn out when `Cc1ccc(Nc2nccc(N(C)c3ccc4c(C)n(C)nc4c3)n2)cc1S(N)(=O)=O` [Pazopanib] + CCN(CC)CCCCNc1ncc2cc(-c3cc(OC)cc(OC)c3)c(NC(=O)NC(C)(C)C)nc2n1 [PD173074] (first compound 2 µM, partner dose 0.5 µM) was run?
**A.** Its cell count is 67.7%.

**Q.** For `CC1(C)CCC(c2ccc(Cl)cc2)=C(CN2CCN(c3ccc(C(=O)NS(=O)(=O)c4ccc(N[C@H](CCN5CCOCC5)CSc5ccccc5)c(S(=O)(=O)C(F)(F)F)c4)cc3)CC2)C1` + NCC(=O)Nc1ccc(-n2nc(C(F)(F)F)cc2-c2ccc3c(ccc4ccccc43)c2)cc1 [OSU03012] (first compound 2 µM, partner dose 5 µM), which cell count is on record?
**A.** The cell count was 57.9%.

**Q.** Which cell count does the source give for `CC1(C)CCC(c2ccc(Cl)cc2)=C(CN2CCN(c3ccc(C(=O)NS(=O)(=O)c4ccc(N[C@H](CCN5CCOCC5)CSc5ccccc5)c(S(=O)(=O)C(F)(F)F)c4)cc3)CC2)C1` + Cc1cc(Nc2cc(N3CCN(C)CC3)nc(/C=C/c3ccccc3)n2)n[nH]1 [ENMD2076] (first compound 2 µM, partner dose 0.2 µM) here?
**A.** The cell count was 60%.

**Q.** With `Cc1ccc(Nc2nccc(N(C)c3ccc4c(C)n(C)nc4c3)n2)cc1S(N)(=O)=O` [Pazopanib] + c1cc(-c2cnn3cc(-c4ccc(OCCN5CCCCC5)cc4)cnc23)ccn1 [Dorsomorphin] (first compound 2 µM, partner dose 2 µM) as the compound, how does the cell count read?
**A.** Its cell count is 69.7%.

**Q.** With `CC1(C)CCC(c2ccc(Cl)cc2)=C(CN2CCN(c3ccc(C(=O)NS(=O)(=O)c4ccc(N[C@H](CCN5CCOCC5)CSc5ccccc5)c(S(=O)(=O)C(F)(F)F)c4)cc3)CC2)C1` + CCc1ccc(CCOc2ccc(CC3SC(=O)NC3=O)cc2)nc1 [pioglitazone] (first compound 2 µM, partner dose 10 µM) as the compound, how does the cell count read?
**A.** The cell count was 69%.

**Q.** Which cell count does the source give for `Cc1ccc(Nc2nccc(N(C)c3ccc4c(C)n(C)nc4c3)n2)cc1S(N)(=O)=O` [Pazopanib] + COC(=O)c1sccc1S(=O)(=O)Nc1ccc(Nc2ccccc2)cc1OC [GSK0660] (first compound 2 µM, partner dose 5 µM) here?
**A.** The cell count was 75.1%.

**Q.** For `Cc1ccc(Nc2nccc(N(C)c3ccc4c(C)n(C)nc4c3)n2)cc1S(N)(=O)=O` [Pazopanib] + C#Cc1cccc(Nc2ncnc3cc(OCCOC)c(OCCOC)cc23)c1 [erlotinib] (first compound 2 µM, partner dose 4 µM), which cell count is on record?
**A.** The cell count was 73.3%.

**Q.** `O=C(/C=C/c1cccnc1)NCCCCC1CCN(C(=O)c2ccccc2)CC1` + CN(NC(=O)CC(=O)NN(C)C(=S)c1ccccc1)C(=S)c1ccccc1 [STA4783] (first compound 0.05 µM, partner dose 0.03 µM) was tested. Which cell count did it give?
**A.** The cell count was 75.1%.

**Q.** `CC1(C)CCC(c2ccc(Cl)cc2)=C(CN2CCN(c3ccc(C(=O)NS(=O)(=O)c4ccc(N[C@H](CCN5CCOCC5)CSc5ccccc5)c(S(=O)(=O)C(F)(F)F)c4)cc3)CC2)C1` + O=C(O)C(=O)Nc1sc2c(c1C(=O)O)CCNC2 [TCS401] (first compound 2 µM, partner dose 8.33333 µM) was tested. Which cell count did it give?
**A.** Its cell count is 67.9%.

**Q.** `Cc1ccc(Nc2nccc(N(C)c3ccc4c(C)n(C)nc4c3)n2)cc1S(N)(=O)=O` [Pazopanib] + O=S(=O)(c1ccccc1)N(CC(F)(F)F)c1ccc(C(O)(C(F)(F)F)C(F)(F)F)cc1 [T0901317] (first compound 2 µM, partner dose 7 µM) was tested. Which cell count did it give?
**A.** Its cell count is 63.8%.

**Q.** For `O=C(/C=C/c1cccnc1)NCCCCC1CCN(C(=O)c2ccccc2)CC1` + COc1ccc(COc2ccc(Cc3cnc(N)nc3N)cc2OC)cc1 [GW2580] (first compound 0.05 µM, partner dose 5 µM), which cell count is on record?
**A.** Its cell count is 77.2%.

**Q.** Which cell count does the source give for `Cc1ccc(Nc2nccc(N(C)c3ccc4c(C)n(C)nc4c3)n2)cc1S(N)(=O)=O` [Pazopanib] + CCCCCCCCCCCC1=C(O)C(=O)C=C(O)C1=O [Embelin] (first compound 2 µM, partner dose 6 µM) here?
**A.** The cell count was 72.6%.

**Q.** How did the cell count turn out when `Cc1ccc(Nc2nccc(N(C)c3ccc4c(C)n(C)nc4c3)n2)cc1S(N)(=O)=O` [Pazopanib] + O=c1cc(-c2cccc3c2Sc2ccccc2S3)oc(N2CCOCC2)c1 [KU55933] (first compound 2 µM, partner dose 5 µM) was run?
**A.** The cell count was 76.9%.

**Q.** With `O=C(/C=C/c1cccnc1)NCCCCC1CCN(C(=O)c2ccccc2)CC1` + O=C(Nc1cccc(Cl)c1)Nc1ncc(CCNc2ncnc3ccsc23)s1 [SNS314] (first compound 0.05 µM, partner dose 0.004 µM) as the compound, how does the cell count read?
**A.** Its cell count is 53.6%.

**Q.** `O=C(/C=C/c1cccnc1)NCCCCC1CCN(C(=O)c2ccccc2)CC1` + COc1cc(N2CCC(N3CCN(C)CC3)CC2)ccc1Nc1ncc(Cl)c(Nc2ccccc2S(=O)(=O)C(C)C)n1 [NVP-TAE684] (first compound 0.05 µM, partner dose 0.4 µM) was tested. Which cell count did it give?
**A.** Its cell count is 81.1%.

**Q.** For `Cc1ccc(Nc2nccc(N(C)c3ccc4c(C)n(C)nc4c3)n2)cc1S(N)(=O)=O` [Pazopanib] + COc1cc2ncnc(Nc3ccc(Oc4ccccc4)cc3)c2cc1OC [SrcI1] (first compound 2 µM, partner dose 10 µM), which cell count is on record?
**A.** Its cell count is 62.5%.

**Q.** Which cell count does the source give for `Cc1ccc(Nc2nccc(N(C)c3ccc4c(C)n(C)nc4c3)n2)cc1S(N)(=O)=O` [Pazopanib] + OCCn1cc(-c2cnc3nnn(Cc4ccc5ncccc5c4)c3n2)cn1 [PF04217903] (first compound 2 µM, partner dose 5 µM) here?
**A.** The cell count was 90.3%.

**Q.** `Cc1ccc(Nc2nccc(N(C)c3ccc4c(C)n(C)nc4c3)n2)cc1S(N)(=O)=O` [Pazopanib] + Cn1cc(/C=C2\C(=O)Nc3cccnc32)c2ccccc21 [GW441756] (first compound 2 µM, partner dose 2 µM) was tested. Which cell count did it give?
**A.** The cell count was 94.4%.

**Q.** Which cell count does the source give for `Cc1ccc(Nc2nccc(N(C)c3ccc4c(C)n(C)nc4c3)n2)cc1S(N)(=O)=O` [Pazopanib] + OCc1c[nH]c2ccccc12 [Indole-3-carbinol] (first compound 2 µM, partner dose 4 µM) here?
**A.** Its cell count is 97.4%.

**Q.** Which cell count does the source give for `CC1(C)CCC(c2ccc(Cl)cc2)=C(CN2CCN(c3ccc(C(=O)NS(=O)(=O)c4ccc(N[C@H](CCN5CCOCC5)CSc5ccccc5)c(S(=O)(=O)C(F)(F)F)c4)cc3)CC2)C1` + COc1cc2c(Oc3ccc4[nH]c(C)cc4c3F)ncnc2cc1OCCCN1CCCC1 [cediranib] (first compound 2 µM, partner dose 2 µM) here?
**A.** Its cell count is 62.3%.

**Q.** Which cell count does the source give for `CC1(C)CCC(c2ccc(Cl)cc2)=C(CN2CCN(c3ccc(C(=O)NS(=O)(=O)c4ccc(N[C@H](CCN5CCOCC5)CSc5ccccc5)c(S(=O)(=O)C(F)(F)F)c4)cc3)CC2)C1` + COc1cc(N2CCC(N3CCN(C)CC3)CC2)ccc1Nc1ncc(Cl)c(Nc2ccccc2S(=O)(=O)C(C)C)n1 [NVP-TAE684] (first compound 2 µM, partner dose 0.4 µM) here?
**A.** The cell count was 50.4%.

**Q.** Which cell count does the source give for `CC1(C)CCC(c2ccc(Cl)cc2)=C(CN2CCN(c3ccc(C(=O)NS(=O)(=O)c4ccc(N[C@H](CCN5CCOCC5)CSc5ccccc5)c(S(=O)(=O)C(F)(F)F)c4)cc3)CC2)C1` + Cn1cc(/C=C2\C(=O)Nc3cccnc32)c2ccccc21 [GW441756] (first compound 2 µM, partner dose 2 µM) here?
**A.** Its cell count is 73%.

**Q.** How did the cell count turn out when `O=C(/C=C/c1cccnc1)NCCCCC1CCN(C(=O)c2ccccc2)CC1` + COc1cc2ncnc(Nc3ccc(Oc4ccccc4)cc3)c2cc1OC [SrcI1] (first compound 0.05 µM, partner dose 10 µM) was run?
**A.** The cell count was 71.8%.

**Q.** Which cell count does the source give for `O=C(/C=C/c1cccnc1)NCCCCC1CCN(C(=O)c2ccccc2)CC1` + O=S(=O)(c1ccccc1)N(CC(F)(F)F)c1ccc(C(O)(C(F)(F)F)C(F)(F)F)cc1 [T0901317] (first compound 0.05 µM, partner dose 7 µM) here?
**A.** Its cell count is 99.1%.

**Q.** For `CC1(C)CCC(c2ccc(Cl)cc2)=C(CN2CCN(c3ccc(C(=O)NS(=O)(=O)c4ccc(N[C@H](CCN5CCOCC5)CSc5ccccc5)c(S(=O)(=O)C(F)(F)F)c4)cc3)CC2)C1` + COC(=O)c1sccc1S(=O)(=O)Nc1ccc(Nc2ccccc2)cc1OC [GSK0660] (first compound 2 µM, partner dose 5 µM), which cell count is on record?
**A.** Its cell count is 65.8%.
